Laboratory results reported in PubChem BioAssay AID1508624 (National Center for Advancing Translational Sciences (NCATS), 2021).
The whole screen tested about 48,000 compounds, of which about 120 (0.25%) were called active. Inconclusive results (about 4%) are left out. Calls come from the whole dose curve; as a rule, active = well fitted activation curve with a large enough effect; inconclusive = small, poorly fitted or top-dose-only effect, or another doubt; inactive = no such curve, though single readings can be large or run the other way. This is one part of the list.

Test: Primary qHTS for Identification of Small Molecule Activators of Huntingtin-Antisense Promoter Activity; note: nearly all actives have a fitted effect of over 55% in size
Details: HEK293 HTT-AS promoter firefly luciferase reporter (activity 0% = vehicle and -100% = no light), 24 h; series mostly up to 57.5 µM; activity change, positive = activation: at the top concentration
Summary of the method: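 HEK293 cells carrying firefly luciferase reporters were seeded at 2,500 per well in Opti-MEM and cultured for 24 h. They were then treated with compounds at up to 57.5 uM final for 24 h at 37 degrees C before Dual-Glo luminescence readout.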

Q: For CCOCCCNC(=O)C(c1ccc(OC)cc1)N(Cc1cccs1)C(=O)CNC(C)=O (stereo not drawn), which “activity change, positive = activation” value is on record?
A: inactive: -7.75%

Q: With CCOC(=O)c1cc2c(=O)n3ccccc3nc2n(CCCOC)c1=NC(=O)c1cc2ccccc2o1 as the compound, how does the “activity change, positive = activation” value read?
A: inactive: 13.6%

Q: For COc1ccc(NC(=O)Cn2c(=O)n(Cc3ccccc3Cl)c(=O)c3cc(OC)c(OC)cc32)cc1, which “activity change, positive = activation” value is on record?
A: inactive: -5.7%

Q: For Cc1ccc(Cn2c(C)c3cnn(CC(=O)N4CCN(c5cc(C)ccc5C)CC4)c(=O)c3c2C)cc1, which “activity change, positive = activation” value is on record?
A: inactive: -50.8%

Q: For O=c1oc2ccc(Cl)cc2cc1-c1nc(-c2cccs2)no1, which “activity change, positive = activation” value is on record?
A: inactive: -7.49%

Q: Which “activity change, positive = activation” value does the source give for COc1ccc(NC(=O)Cn2c(=O)n(Cc3ccco3)c(=O)c3sc4ccccc4c32)cc1Cl here?
A: inactive: -31.6%

Q: For Cc1ccc(N2CCn3c2nc2c3c(=O)n(Cc3cccc(Cl)c3)c(=O)n2C)cc1C, which “activity change, positive = activation” value is on record?
A: inactive: -5.89%

Q: Which “activity change, positive = activation” value does the source give for CC(C)c1ccc(NC(=O)CN2C(=O)C3(SCC(=O)N3c3ccc(F)cc3)c3ccccc32)cc1 (stereo not drawn) here?
A: inactive: -27.5%

Q: For O=c1c(-c2ccc(O)cc2)coc2cc(OC3O[C@H](CO)[C@H](O)[C@H](O)[C@H]3O)cc(O)c12 (stereo partly drawn), which “activity change, positive = activation” value is on record?
A: inactive: 3.98%

Q: With O=C(Nc1ccc(Cl)cc1)c1ccc2c(c1)N(Cc1ccccc1)CCS2 as the compound, how does the “activity change, positive = activation” value read?
A: inactive: 1.76%

Q: Which “activity change, positive = activation” value does the source give for CCN(C(=O)CSc1nc2ccccc2nc1Cc1ccccc1OC)c1ccccc1 here?
A: inactive: -7.75%

Q: For O=C(CN1C(=O)CCSc2ccc(S(=O)(=O)N3CCCC3)cc21)Nc1ccccc1Cl, which “activity change, positive = activation” value is on record?
A: inactive: -1.5%

Q: Which “activity change, positive = activation” value does the source give for CCCC12CN3CC(CCC)(CN(C1)C3c1c[nH]c3ccc(OC)cc13)C2=O (stereo not drawn) here?
A: inactive: 4.54%

Q: Which “activity change, positive = activation” value does the source give for CCCOc1ccc(CC2C(=O)Nc3ccc(Br)cc32)cc1 (stereo not drawn) here?
A: inactive: -16.8%

Q: With Cc1nc(CC(=O)Nc2ccc(C(N)=O)cc2)cs1 as the compound, how does the “activity change, positive = activation” value read?
A: inactive: -7.51%

Q: Which “activity change, positive = activation” value does the source give for CCSC1=NC2(CCN(C(=O)NC3CCCCC3)CC2)N=C1c1ccc(OC)cc1 here?
A: inactive: -28%

Q: For CCOc1ccccc1CNC(=O)CCc1cn(C)c2ccccc12, which “activity change, positive = activation” value is on record?
A: inactive: -28%

Q: Which “activity change, positive = activation” value does the source give for CC(C(=O)NCc1ccccc1)n1ccc2cc(S(=O)(=O)N3CCCC3)ccc21 (stereo not drawn) here?
A: inactive: -15.8%

Q: For CC(C)c1ccc(NC(=O)CSC2=Nc3ccccc3C3=NC(CCC(=O)NCc4cccs4)C(=O)N23)cc1 (stereo not drawn), which “activity change, positive = activation” value is on record?
A: inactive: -33.5%

Q: Which “activity change, positive = activation” value does the source give for CCOc1ccc(NC(=O)c2nn(C)c3c2COc2ccccc2-3)cc1 here?
A: inactive: 7.5%

Q: Which “activity change, positive = activation” value does the source give for COc1ccc2c(c1)c1c(c(=O)n(-c3cc(Cl)ccc3C)c(=O)n1Cc1ccc(F)cc1)n2C here?
A: inactive: -19.1%

Q: For Cc1c(Cl)cccc1-n1ncc(C(=O)NC2CCCC2)c1C1CCN(C(=O)OC(C)(C)C)CC1, which “activity change, positive = activation” value is on record?
A: inactive: -3.84%

Q: With Cc1ccc(NC(=O)N2CCN3CCCCC3C2)cc1C (stereo not drawn) as the compound, how does the “activity change, positive = activation” value read?
A: inactive: 10.5%

Q: Which “activity change, positive = activation” value does the source give for CCSc1ncc(Cl)c(C(=O)Nc2cc(C)ccc2C)n1 here?
A: inactive: -1.44%

Q: With CC(=O)c1c(C)n(-c2cccc(Cl)c2)c2ccc(OC(=O)c3ccccc3)cc12 as the compound, how does the “activity change, positive = activation” value read?
A: inactive: -8.13%

Q: For CCCOC(=O)c1c(-c2ccccc2)c(-c2ccccc2)nn(C)c1=O, which “activity change, positive = activation” value is on record?
A: inactive: 18.8%

Q: Which “activity change, positive = activation” value does the source give for Cc1cc(C)c(-c2n[nH]c3c2C(c2ccccc2F)N(CCO)C3=O)c(O)c1 (stereo not drawn) here?
A: inactive: -34.9%

Q: With COc1ccc(-c2[nH]c(-c3ccc(C)cc3)nc2SCC(=O)NCC2CCCO2)cc1 (stereo not drawn) as the compound, how does the “activity change, positive = activation” value read?
A: inactive: -17.8%

Q: With COc1cccc(NC(=O)CSc2nc(=O)[nH]c3c2CCCC3)c1 as the compound, how does the “activity change, positive = activation” value read?
A: inactive: -23.8%

Q: For CC1=NS(=O)(=O)c2cc(Cl)ccc2N1, which “activity change, positive = activation” value is on record?
A: inactive: 0.145%

Q: For COC(=O)c1c(NC(=O)CS(=O)(=O)c2ccc(C)cc2)sc2c1CCCCC2, which “activity change, positive = activation” value is on record?
A: inactive: -23.4%

Q: With CCOc1cc2[nH]c(=O)n(CCC(=O)N3CCN(c4ccccc4)CC3)c(=O)c2cc1OCC as the compound, how does the “activity change, positive = activation” value read?
A: inactive: -9.21%

Q: For Cc1ccc(-n2nc3c(N4CCCC(C(=O)NCc5ccccc5C)C4)nnc(C)c3c2C)cc1 (stereo not drawn), which “activity change, positive = activation” value is on record?
A: inactive: -7.95%

Q: With Cn1c(=O)n(C)c2cc(CNCc3ccccc3Cl)ccc21 as the compound, how does the “activity change, positive = activation” value read?
A: inactive: -2.13%

Q: For COc1cccc(C(=O)NCc2cn3cccc(C)c3n2)c1, which “activity change, positive = activation” value is on record?
A: inactive: -3.38%

Q: For CCCn1c(=N)c(C(=O)NC(C)c2ccccc2)cc2c(=O)n3ccccc3nc21 (stereo not drawn), which “activity change, positive = activation” value is on record?
A: inactive: -10.9%

Q: For O=C(c1ccc(Cl)cc1)n1nc(-c2ccccc2)nc1NCc1ccco1, which “activity change, positive = activation” value is on record?
A: inactive: 7.83%

Q: For CCOC(=O)Cc1ccc(NC(=O)Nc2nnc(N3CCCCC3C)s2)cc1 (stereo not drawn), which “activity change, positive = activation” value is on record?
A: inactive: -38.4%

Q: Which “activity change, positive = activation” value does the source give for COC1=C(OC)C(=O)C(CC=C(C)CCC=C(C)CCC=C(C)CCC=C(C)CCC=C(C)CCC=C(C)CCC=C(C)CCC=C(C)CCC=C(C)CCC=C(C)C)=C(C)C1=O here?
A: inactive: 0.537%

Q: Which “activity change, positive = activation” value does the source give for COC(=O)c1ccc(NC(=O)c2c(-c3ccccc3)c(-c3ccccc3)nn(C)c2=O)cc1 here?
A: inactive: -1.41%

Q: With O=C(Nc1ccc2c(c1)CCCN2C(=O)c1cccs1)c1ccccc1C(F)(F)F as the compound, how does the “activity change, positive = activation” value read?
A: inactive: -17.6%

Q: For CCCN(C(=O)c1cc2c(s1)-c1ccccc1OC2)c1ccc(C(C)C)cc1, which “activity change, positive = activation” value is on record?
A: inactive: -11.8%

Q: For Cc1cccc(OC(=O)c2snnc2C)c1C, which “activity change, positive = activation” value is on record?
A: inactive: -16.4%

Q: For CCC(=O)N1CCc2cc(Br)cc(S(=O)(=O)NCCc3ccc(C)cc3)c21, which “activity change, positive = activation” value is on record?
A: inactive: -30.8%

Q: For CCc1ccc(Nc2nc(-c3cc4cccc(OC)c4oc3=O)c(CC)s2)cc1, which “activity change, positive = activation” value is on record?
A: inactive: 11%

Q: With CCOC(=O)c1ccc(NC(=O)Nc2cc3c(cc2N2CCCCC2)n(CC)c(=O)n3CC)cc1 as the compound, how does the “activity change, positive = activation” value read?
A: inactive: -30.1%

Q: For COc1ccc(Br)cc1CNCc1c(C(=O)O)c(C)n(Cc2ccccc2C)c1C, which “activity change, positive = activation” value is on record?
A: inactive: -25.2%

Q: With Cc1nc2cccnc2n1-c1cccc(C(=O)NCc2cccc(Cl)c2)c1 as the compound, how does the “activity change, positive = activation” value read?
A: inactive: -35.4%
